A compilation of properties of binary mixtures (doi:10.1016/j.molliq.2017.12.015)
The densities may have been worked out from excess volumes.

Experiment: xn = mol fraction of the nth substance listed
Settings: 100 kPa

CCOCCO + CCCC[n+]1ccn(C)c1.O=S(=O)([N-]S(=O)(=O)C(F)(F)F)C(F)(F)F
mass density (298.15 K, x2 = 0): 925.1 kg/m3 | mass density (298.15 K, x2 = 0.1036): 1059.6 kg/m3 | mass density (298.15 K, x2 = 0.3882): 1263.7 kg/m3 | mass density (298.15 K, x2 = 0.489): 1305.7 kg/m3 | mass density (298.15 K, x2 = 0.5889): 1340 kg/m3 | mass density (298.15 K, x2 = 0.7018): 1370.9 kg/m3 | mass density (298.15 K, x2 = 0.9071): 1418.3 kg/m3 | mass density (303.15 K, x2 = 0): 921 kg/m3 | mass density (303.15 K, x2 = 0.1036): 1055.4 kg/m3 | mass density (303.15 K, x2 = 0.1905): 1137.7 kg/m3 | mass density (303.15 K, x2 = 0.2965): 1210.7 kg/m3 | mass density (303.15 K, x2 = 0.489): 1301.2 kg/m3 | mass density (303.15 K, x2 = 0.5889): 1335 kg/m3 | mass density (303.15 K, x2 = 0.7018): 1366 kg/m3 | mass density (303.15 K, x2 = 0.7928): 1388.3 kg/m3 | mass density (303.15 K, x2 = 0.9071): 1413.4 kg/m3 | mass density (308.15 K, x2 = 0): 916.8 kg/m3 | mass density (308.15 K, x2 = 0.1036): 1051.2 kg/m3 | mass density (308.15 K, x2 = 0.1905): 1133.4 kg/m3 | mass density (308.15 K, x2 = 0.2965): 1206.3 kg/m3 | mass density (308.15 K, x2 = 0.3882): 1254.7 kg/m3 | mass density (308.15 K, x2 = 0.489): 1296.7 kg/m3 | mass density (308.15 K, x2 = 0.5889): 1330.1 kg/m3 | mass density (308.15 K, x2 = 0.7018): 1361.2 kg/m3 | mass density (308.15 K, x2 = 0.7928): 1383.4 kg/m3 | mass density (308.15 K, x2 = 0.9071): 1408.5 kg/m3 | mass density (313.15 K, x2 = 0.1036): 1047 kg/m3 | mass density (313.15 K, x2 = 0.1905): 1129.2 kg/m3 | mass density (313.15 K, x2 = 0.489): 1292.2 kg/m3 | mass density (313.15 K, x2 = 0.5889): 1325.2 kg/m3 | mass density (313.15 K, x2 = 0.7018): 1356.3 kg/m3 | mass density (313.15 K, x2 = 0.7928): 1378.5 kg/m3 | mass density (313.15 K, x2 = 0.9071): 1403.6 kg/m3 | mass density (318.15 K, x2 = 0): 908.5 kg/m3 | mass density (318.15 K, x2 = 0.1036): 1042.8 kg/m3 | mass density (318.15 K, x2 = 0.1905): 1124.9 kg/m3 | mass density (318.15 K, x2 = 0.489): 1287.8 kg/m3 | mass density (318.15 K, x2 = 0.5889): 1320.2 kg/m3 | mass density (318.15 K, x2 = 0.7018): 1351.4 kg/m3 | mass density (318.15 K, x2 = 0.9071): 1398.7 kg/m3 | mass density (323.15 K, x2 = 0): 904.3 kg/m3 | mass density (323.15 K, x2 = 0.1036): 1038.6 kg/m3 | mass density (323.15 K, x2 = 0.1905): 1120.7 kg/m3 | mass density (323.15 K, x2 = 0.3882): 1241.2 kg/m3 | mass density (323.15 K, x2 = 0.489): 1283.3 kg/m3 | mass density (323.15 K, x2 = 0.5889): 1315.3 kg/m3 | mass density (323.15 K, x2 = 0.7018): 1346.5 kg/m3 | mass density (323.15 K, x2 = 0.7928): 1368.7 kg/m3 | mass density (323.15 K, x2 = 0.9071): 1393.8 kg/m3

CCCC[n+]1ccn(C)c1.O=S(=O)([N-]S(=O)(=O)C(F)(F)F)C(F)(F)F + CCOCCO
mass density (298.15 K, x1 = 1): 1437.1 kg/m3 | mass density (303.15 K, x1 = 1): 1432.5 kg/m3 | mass density (308.15 K, x1 = 1): 1427.4 kg/m3 | mass density (313.15 K, x1 = 1): 1422.9 kg/m3 | mass density (318.15 K, x1 = 1): 1417.9 kg/m3 | mass density (323.15 K, x1 = 1): 1413.6 kg/m3
